Laboratory results taken from the supplement of paper PMC12217912.
The list shows a part of the results. Sequences were assembled here from the parent chain. Values near 0.05 are background.

B1: TEV protease; numbered along this chain (parent)
chain: MGESLFKGPRDYNPISSSICHLTNESDGHTTSLYGIGFGPFIITNKHLFRRNNGTLVVQSLHGVFKVKDTTTLQQHLVDGRDMIIIRMPKDFPPFPQKLKFREPQREERICLVTTNFQTKSMSSMVSDTSCTFPSGDGIFWKHWIQTKDGQCGSPLVSTRDGFIVGIHSASNFTNTNNYFTSVPKNFMELLTNQEAQQWVSGWRLNADSVLWGGHKVFMVKPEEPFQPVKEATQL

Variants of: B1
Test: raw area under fraction-flipped curve 0-4 h after induction (AUC4h, not background-subtracted), DNA-recorder readout of cleavage of the substrate (dimensionless); higher = more cleavage of the substrate by the protease variant
Details: temperature: 34 °C; time window: 0-4 h after rhamnose induction
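Note: Bxb1 expression induced with 0.2% (w/v) L-rhamnose at OD600 near 0.5, cultures sampled hourly, flipped fraction per protease–substrate barcode pair counted by paired-end Illumina sequencing.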

Variant	area with substrate ENLYFQD	area with substrate ENLYFQF	area with substrate ENLYFQG	area with substrate ENLYFQH	area with substrate ENLYFQI	area with substrate ENLYFQL	area with substrate ENLYFQN	area with substrate ENLYFQP	area with substrate ENLYFQQ	area with substrate ENLYFQR	area with substrate ENLYFQS	area with substrate ENLYFQT	area with substrate ENLYFQV	area with substrate ENLYFQW	area with substrate ENLYFQY	area with substrate ENLYFQK	area with substrate ENLYFQM	area with substrate ENLYFQE
E3G	0.0719	0.0741	0.0758	0.0733	0.0722	0.0654	0.0714	0.0718	0.0611	0.0603	0.0698	0.0627	0.0693	0.0669	0.059			
S18Y	0.0589	0.0765		0.0797	0.0716				0.0686	0.0541	0.0914		0.0544			0.0628	0.0762	
G28M	0.0595			0.0838	0.0637	0.0625	0.089			0.051	0.0902	0.0631		0.0439	0.0764	0.0552	0.0947	
N52I	0.0701									0.0567	0.0648			0.0528	0.0593	0.0521		
N52M	0.0872		0.0718			0.0624	0.0719	0.0634			0.0654			0.0623		0.0637		
F65R	0.11	0.0867			0.062	0.053	0.0534	0.0472		0.0905	0.097	0.0393		0.0748	0.0989	0.0623		0.0537
Q74H	0.106										0.0921	0.0744	0.0624	0.0665		0.0544		
C111K	0.0927		0.144			0.0611	0.0813				0.111	0.0987	0.0786	0.0568	0.0819	0.0711	0.113	
S121A	0.0834		0.0939	0.0804		0.0536				0.0632	0.0997	0.0506	0.0254			0.067	0.049	
T159E	0.044			0.085	0.0631				0.0618	0.0049	0.1	0.0532	0.0473				0.0688	0.0713
E195C	0.0849		0.0746	0.0733			0.0785		0.0585	0.0505	0.0973			0.0702	0.0704	0.0558	0.0659	
G202V	0.0715			0.059		0.0426				0.0567	0.064		0.0577	0.0529	0.0521	0.0537		
V210D	0.0528				0.0752	0.0526	0.0598	0.0509	0.0513	0.0572	0.0767	0.0492			0.0527		0.0459	
Q227P	0.0841		0.0871		0.0519	0.0656	0.068		0.0484	0.0494	0.105	0.0018	0.0816				0.073	0.0531
P228N	0.0711			0.0858	0.0547	0.0633	0.0774	0.0529		0.0727	0.104				0.0589	0.0755	0.0888	0.0765
N52Y			0.063	0.0656	0.0693	0.0594		0.056	0.0544	0.061	0.0704	0.0597	0.0607	0.05		0.056	0.0672	0.0527
K100T		0.0636			0.0516	0.061				0.0505	0.108	0.0422	0.0348	0.103	0.0685		0.0674	
W144T		0.0693					0.0703	0.0619			0.0941	0.0648	0.0617			0.0691	0.109	
D149S		0.0759	0.0709				0.0747			0.0619	0.0999	0.0586		0.0595		0.0616	0.0691	

Variant	area with substrate ENLYFQD	area with substrate ENLYFQF	area with substrate ENLYFQG	area with substrate ENLYFQH	area with substrate ENLYFQI	area with substrate ENLYFQL	area with substrate ENLYFQN	area with substrate ENLYFQP	area with substrate ENLYFQQ	area with substrate ENLYFQR	area with substrate ENLYFQS	area with substrate ENLYFQT	area with substrate ENLYFQV	area with substrate ENLYFQW	area with substrate ENLYFQY	area with substrate ENLYFQK	area with substrate ENLYFQM	area with substrate ENLYFQE
T159G		0.0931	0.103	0.0866	0.0491		0.0811	0.0698		0.0666	0.11		0.033		0.0848	0.0356	0.0738	
T192Y		0.0935								0.0581	0.102	0.0864	0.0499					
W203R		0.0648	0.0496		0.0852		0.0492				0.066	0.063		0.0532	0.0618	0.0623	0.0609	
L61N			0.0917							0.0742	0.1							
Q118F			0.11	0.0594	0.0655	0.0599	0.0565	0.0648		0.0669	0.097	0.0682		0.0632	0.0767	0.0493	0.0707	
M125L			0.0952	0.0938	0.0626		0.0628	0.0614		0.0524	0.11	0.0676		0.0521	0.0659	0.059	0.0823	
M188C			0.0858	0.0503		0.0538	0.0847			0.0606	0.106	0.0317	0.0675	0.0673	0.0894	0.0478	0.0717	
Q194S			0.201		0.0628	0.0609	0.0861			0.0412	0.108	0.0668	0.0583			0.0778	0.108	
K120L				0.0707	0.0615		0.0784	0.0376		0.0613	0.096	0.0599	0.0608	0.0686		0.0647		
G213S				0.0646	0.053	0.048	0.045			0.0544	0.0761	0.0524	0.0608		0.0626	0.061	0.0525	
Q105T					0.0611					0.0268	0.102		0.0593	0.0705	0.0955		0.0912	
G214V					0.0522		0.0404			0.0558	0.0813		0.0614			0.0779	0.0667	
F218H					0.0584	0.0539	0.085	0.0484	0.065	0.0596	0.106	0.0595	0.0382	0.0615			0.0849	
M219L					0.0569						0.0943	0.0638					0.0803	
G35L						0.0413					0.0473	0.0509			0.0434			
G138Q							0.0663	0.0648		0.0471	0.0989	0.0576	0.0773				0.0842	
G35M											0.0435							
V64F											0.104							
